Results on 40 sequences are retold here after PMC12820563, “FoxP3 forms a head-to-head dimer in vivo and stabilizes its multimerization on adjacent microsatellites”.

The other results are listed elsewhere or left out.

The target in the experiment is T1, MBP-FoxP1dN (Mus musculus, UniProt P58462 326-579).
T1 sequence: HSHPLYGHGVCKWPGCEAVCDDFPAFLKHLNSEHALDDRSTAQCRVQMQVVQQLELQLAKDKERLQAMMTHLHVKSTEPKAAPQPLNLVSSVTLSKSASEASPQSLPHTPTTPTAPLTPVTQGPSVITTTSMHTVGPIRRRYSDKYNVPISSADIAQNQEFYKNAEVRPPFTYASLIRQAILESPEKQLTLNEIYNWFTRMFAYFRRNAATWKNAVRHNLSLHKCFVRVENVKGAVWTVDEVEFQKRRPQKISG
As to the kind of experiment: PD-seq (MBP pull-down with sequencing); 20 mM Tris-HCl pH 7.5, 100 mM NaCl, 1.5 mM MgCl2, 0.4 uM protein, 0.1 uM dsDNA library, 30 min, room temperature, amylose pull-down; high values mean tight binding. Conditions: protein: recombinant; tags: His6-MBP; chain copies: 2; dsDNA, one strand shown. The procedure, abridged: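 Protein and DNA were mixed at 0.4 µM and 0.1 µM and held for 30 min at room temperature in Tris pH 7.5 buffer with NaCl and MgCl2; the protein was a His6-MBP-tagged, N-terminally truncated mouse FoxP3 or FoxP1 fragment from E. coli, and the DNA a Klenow-filled double-stranded degenerate library. Amylose resin captured the complexes, which were washed three times. Binding is read as reads-per-million enrichment of pull-down versus input after Illumina sequencing, with replicates pooled.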
Consider “GATGATTGTTCTCCCAGCTGATGAATTGCGGACATCGAGTAAACAAATTTTCCTAATCTTTCTGTTCAAGCGCCATCTAC”, for which the binding signal was 1.1 RPM ratio (pull-down/input). The result for “GATGATTGTTCTCCCAGCTGATGAATTTGTGCAATCGAGTAAACAAATTTTCCTAATCTTTCTGTTCAAGCGCCATCTAC” reads 1.42 RPM ratio (pull-down/input). The same measure for “GATGATTGTTCTCCCAGCTGATGAATTTCATCAATCGAGTAAACAAATTTTCCTAATCTTTCTGTTCAAGCGCCATCTAC”: 1.01 RPM ratio (pull-down/input); for “GATGATTGTTCTCCCAGCTGATGAATTCTAGTCCTCGAGTAAACAAATTTTCCTAATCTTTCTGTTCAAGCGCCATCTAC”: 0.763 RPM ratio (pull-down/input). The same measure for “GATGATTGTTCTCCCAGCTGATGAATTAGGCGCCTCGAGTAAACAAATTTTCCTAATCTTTCTGTTCAAGCGCCATCTAC”: 1.04 RPM ratio (pull-down/input); for “GATGATTGTTCTCCCAGCTGATGAATTGCCGACTTCGAGTAAACAAATTTTCCTAATCTTTCTGTTCAAGCGCCATCTAC”: 0.874 RPM ratio (pull-down/input). As for “GATGATTGTTCTCCCAGCTGATGAATTTAGCAAGTCGAGTAAACAAATTTTCCTAATCTTTCTGTTCAAGCGCCATCTAC”, the binding signal was 0.913 RPM ratio (pull-down/input).

As to “GATGATTGTTCTCCCAGCTGATGAATTTGTTACCTCGAGTAAACAAATTTTCCTAATCTTTCTGTTCAAGCGCCATCTAC”, the binding signal is 1.24 RPM ratio (pull-down/input). As to “GATGATTGTTCTCCCAGCTGATGAATTGCCGAATTCGAGTAAACAAATTTTCCTAATCTTTCTGTTCAAGCGCCATCTAC”, the binding signal is 1 RPM ratio (pull-down/input). The same measure for “GATGATTGTTCTCCCAGCTGATGAATTCCGGTGTTCGAGTAAACAAATTTTCCTAATCTTTCTGTTCAAGCGCCATCTAC”: 0.893 RPM ratio (pull-down/input); for “GATGATTGTTCTCCCAGCTGATGAATTAAGCACGTCGAGTAAACAAATTTTCCTAATCTTTCTGTTCAAGCGCCATCTAC”: 0.999 RPM ratio (pull-down/input); for “GATGATTGTTCTCCCAGCTGATGAATTAGTGCACTCGAGTAAACAAATTTTCCTAATCTTTCTGTTCAAGCGCCATCTAC”: 1.02 RPM ratio (pull-down/input). The same measure for “GATGATTGTTCTCCCAGCTGATGAATTTCCTGCGTCGAGTAAACAAATTTTCCTAATCTTTCTGTTCAAGCGCCATCTAC”: 0.938 RPM ratio (pull-down/input). For the sequence “GATGATTGTTCTCCCAGCTGATGAATTGCGCATATCGAGTAAACAAATTTTCCTAATCTTTCTGTTCAAGCGCCATCTAC”, the binding signal was 1.2 RPM ratio (pull-down/input). The result for “GATGATTGTTCTCCCAGCTGATGAATTTGAAGCGTCGAGTAAACAAATTTTCCTAATCTTTCTGTTCAAGCGCCATCTAC” reads 0.859 RPM ratio (pull-down/input); that for “GATGATTGTTCTCCCAGCTGATGAATTGTGTGGGTCGAGTAAACAAATTTTCCTAATCTTTCTGTTCAAGCGCCATCTAC”, 1.02 RPM ratio (pull-down/input); that for “GATGATTGTTCTCCCAGCTGATGAATTGAGTGTTTCGAGTAAACAAATTTTCCTAATCTTTCTGTTCAAGCGCCATCTAC”, 1.02 RPM ratio (pull-down/input).

“GATGATTGTTCTCCCAGCTGATGAATTTTTCAGTTCGAGTAAACAAATTTTCCTAATCTTTCTGTTCAAGCGCCATCTAC”: the binding signal is 0.943 RPM ratio (pull-down/input). The result for “GATGATTGTTCTCCCAGCTGATGAATTATTGTGTTCGAGTAAACAAATTTTCCTAATCTTTCTGTTCAAGCGCCATCTAC” reads 2.1 RPM ratio (pull-down/input); that for “GATGATTGTTCTCCCAGCTGATGAATTGCGCTATTCGAGTAAACAAATTTTCCTAATCTTTCTGTTCAAGCGCCATCTAC”, 1.18 RPM ratio (pull-down/input).

In the case of “GATGATTGTTCTCCCAGCTGATGAATTTCACTTCTCGAGTAAACAAATTTTCCTAATCTTTCTGTTCAAGCGCCATCTAC”, the binding signal is 0.794 RPM ratio (pull-down/input). As to “GATGATTGTTCTCCCAGCTGATGAATTTACCACATCGAGTAAACAAATTTTCCTAATCTTTCTGTTCAAGCGCCATCTAC”, the binding signal is 1.51 RPM ratio (pull-down/input). The same measure for “GATGATTGTTCTCCCAGCTGATGAATTATAAGCGTCGAGTAAACAAATTTTCCTAATCTTTCTGTTCAAGCGCCATCTAC”: 1.05 RPM ratio (pull-down/input); for “GATGATTGTTCTCCCAGCTGATGAATTAGAGAGCTCGAGTAAACAAATTTTCCTAATCTTTCTGTTCAAGCGCCATCTAC”: 0.858 RPM ratio (pull-down/input); for “GATGATTGTTCTCCCAGCTGATGAATTGGCAGAATCGAGTAAACAAATTTTCCTAATCTTTCTGTTCAAGCGCCATCTAC”: 0.88 RPM ratio (pull-down/input).

Consider “GATGATTGTTCTCCCAGCTGATGAATTGCCTCTATCGAGTAAACAAATTTTCCTAATCTTTCTGTTCAAGCGCCATCTAC”, for which the binding signal is 1.05 RPM ratio (pull-down/input). The result for “GATGATTGTTCTCCCAGCTGATGAATTGGTTCCTTCGAGTAAACAAATTTTCCTAATCTTTCTGTTCAAGCGCCATCTAC” reads 0.944 RPM ratio (pull-down/input). Regarding “GATGATTGTTCTCCCAGCTGATGAATTTAAATGCTCGAGTAAACAAATTTTCCTAATCTTTCTGTTCAAGCGCCATCTAC”, the binding signal was 1.3 RPM ratio (pull-down/input). The same measure for “GATGATTGTTCTCCCAGCTGATGAATTTTTGCGATCGAGTAAACAAATTTTCCTAATCTTTCTGTTCAAGCGCCATCTAC”: 1.01 RPM ratio (pull-down/input); for “GATGATTGTTCTCCCAGCTGATGAATTCGGGGGATCGAGTAAACAAATTTTCCTAATCTTTCTGTTCAAGCGCCATCTAC”: 0.802 RPM ratio (pull-down/input); for “GATGATTGTTCTCCCAGCTGATGAATTGAACAACTCGAGTAAACAAATTTTCCTAATCTTTCTGTTCAAGCGCCATCTAC”: 0.949 RPM ratio (pull-down/input). In the case of “GATGATTGTTCTCCCAGCTGATGAATTAAACAGCTCGAGTAAACAAATTTTCCTAATCTTTCTGTTCAAGCGCCATCTAC”, the binding signal was 1.19 RPM ratio (pull-down/input). The result for “GATGATTGTTCTCCCAGCTGATGAATTCCGCAGCTCGAGTAAACAAATTTTCCTAATCTTTCTGTTCAAGCGCCATCTAC” reads 0.792 RPM ratio (pull-down/input); that for “GATGATTGTTCTCCCAGCTGATGAATTTATAACATCGAGTAAACAAATTTTCCTAATCTTTCTGTTCAAGCGCCATCTAC”, 1.31 RPM ratio (pull-down/input). As for “GATGATTGTTCTCCCAGCTGATGAATTGTAGGTATCGAGTAAACAAATTTTCCTAATCTTTCTGTTCAAGCGCCATCTAC”, the binding signal is 1.12 RPM ratio (pull-down/input). The same measure for “GATGATTGTTCTCCCAGCTGATGAATTGCAGTCTTCGAGTAAACAAATTTTCCTAATCTTTCTGTTCAAGCGCCATCTAC”: 1.14 RPM ratio (pull-down/input); for “GATGATTGTTCTCCCAGCTGATGAATTCTATGTTTCGAGTAAACAAATTTTCCTAATCTTTCTGTTCAAGCGCCATCTAC”: 1.17 RPM ratio (pull-down/input).

“GATGATTGTTCTCCCAGCTGATGAATTAGAAAAATCGAGTAAACAAATTTTCCTAATCTTTCTGTTCAAGCGCCATCTAC”: the binding signal was 1.04 RPM ratio (pull-down/input).

For the sequence “GATGATTGTTCTCCCAGCTGATGAATTGCGCCACTCGAGTAAACAAATTTTCCTAATCTTTCTGTTCAAGCGCCATCTAC”, the binding signal was 1.04 RPM ratio (pull-down/input).

On to “GATGATTGTTCTCCCAGCTGATGAATTAGCGACATCGAGTAAACAAATTTTCCTAATCTTTCTGTTCAAGCGCCATCTAC”, for which the binding signal is 0.993 RPM ratio (pull-down/input).
